From article PMC6555833, “APC/C^CDH1 synchronizes ribose-5-phosphate levels and DNA synthesis to cell cycle progression” (Nature Communications, 2019)
Changes are numbered by the printed parent chain. Results are given in words; binding and its absence hold for the method and conditions named. For some assays here: Binding seen in cells or lysates may run through a third protein. Some results given as binding are weak or reduced against the parent protein; the word gives no strength. For some assays here: Tags and fused reporters may be left off the sequences shown. Each block holds one molecule with its values, some of them ahead of it.

Sequences of proteins named here, by UniProt entry; tags and fusion partners are left off.
UniProt Q12834: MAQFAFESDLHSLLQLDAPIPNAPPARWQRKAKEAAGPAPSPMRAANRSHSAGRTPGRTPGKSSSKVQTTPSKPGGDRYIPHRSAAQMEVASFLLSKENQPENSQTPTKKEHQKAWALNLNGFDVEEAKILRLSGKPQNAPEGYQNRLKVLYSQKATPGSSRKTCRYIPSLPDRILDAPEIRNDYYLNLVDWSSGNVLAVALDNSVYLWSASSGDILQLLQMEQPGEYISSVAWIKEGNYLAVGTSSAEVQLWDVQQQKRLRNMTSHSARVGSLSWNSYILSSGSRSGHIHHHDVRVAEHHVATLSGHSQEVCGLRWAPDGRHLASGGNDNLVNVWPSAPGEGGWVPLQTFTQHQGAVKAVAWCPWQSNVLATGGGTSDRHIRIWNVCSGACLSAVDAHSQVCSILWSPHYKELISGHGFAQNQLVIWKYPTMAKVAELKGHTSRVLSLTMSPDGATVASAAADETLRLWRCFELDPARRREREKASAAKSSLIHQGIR
UniProt Q9UM11: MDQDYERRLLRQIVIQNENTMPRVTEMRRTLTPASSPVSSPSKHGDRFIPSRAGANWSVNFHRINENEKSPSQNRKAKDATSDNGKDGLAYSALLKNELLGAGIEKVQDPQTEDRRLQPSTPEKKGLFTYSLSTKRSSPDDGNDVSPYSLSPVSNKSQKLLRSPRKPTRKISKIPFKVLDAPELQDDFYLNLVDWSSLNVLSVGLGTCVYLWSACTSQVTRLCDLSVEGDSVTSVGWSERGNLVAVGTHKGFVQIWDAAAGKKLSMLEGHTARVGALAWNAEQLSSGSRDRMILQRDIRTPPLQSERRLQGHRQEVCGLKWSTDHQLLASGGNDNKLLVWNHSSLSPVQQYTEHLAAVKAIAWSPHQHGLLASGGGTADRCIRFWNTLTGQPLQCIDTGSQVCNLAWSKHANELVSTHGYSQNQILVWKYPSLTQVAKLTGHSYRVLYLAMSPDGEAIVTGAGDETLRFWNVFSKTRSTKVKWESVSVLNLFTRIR

Assays:
[1] = molecular target: T1, exogenous tagged TKTL1 (co-expressed with CDC20, SKP2 or FBW7) (human) (UniProt P51854); assay: co-IP; exogenous tagged proteins co-expressed in cultured cells (Supplementary Fig. 4a-c); cell line and tags not told
T1 sequence: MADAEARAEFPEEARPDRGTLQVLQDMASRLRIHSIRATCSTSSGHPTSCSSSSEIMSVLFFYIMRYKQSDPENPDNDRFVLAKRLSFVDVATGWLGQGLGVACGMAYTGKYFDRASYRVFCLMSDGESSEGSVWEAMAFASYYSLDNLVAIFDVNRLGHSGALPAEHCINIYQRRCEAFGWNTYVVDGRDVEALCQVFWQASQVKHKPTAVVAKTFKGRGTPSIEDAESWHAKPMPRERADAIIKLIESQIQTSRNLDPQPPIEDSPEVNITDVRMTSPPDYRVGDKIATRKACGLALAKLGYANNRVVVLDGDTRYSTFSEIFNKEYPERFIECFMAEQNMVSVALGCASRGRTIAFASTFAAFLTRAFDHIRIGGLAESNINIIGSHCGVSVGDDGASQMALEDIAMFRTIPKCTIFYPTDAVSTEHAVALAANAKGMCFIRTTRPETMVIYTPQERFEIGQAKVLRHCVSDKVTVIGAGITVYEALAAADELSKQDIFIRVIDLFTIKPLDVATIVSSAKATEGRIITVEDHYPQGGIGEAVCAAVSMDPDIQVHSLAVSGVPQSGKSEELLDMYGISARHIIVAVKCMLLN

[2] = molecular target: T2, TKTL1-FLAG (transketolase-like 1) (human) (UniProt P51854); assay: co-IP; co-expression in HeLa cells; lysis in 0.5% NP-40 buffer (50 mM Tris-HCl pH 7.5, 150 mM NaCl, 0.3% NONIDET P-40); Flag beads 3 h at 4 °C; western blot
T2 sequence: T1 sequence

TKTL1^ΔD-box (human) = molecular target: T3, TKTL1^ΔD-box (human) (UniProt P51854); assay: as above
T3 sequence: T1 sequence with R18A, L21A

[3] = molecular target: T4, endogenous TKTL1 (ccRCC tissue) (human (endogenous in ccRCC tissue)) (UniProt P51854); assay: co-IP; endogenous TKTL1 affinity purified from ccRCC tissue lysate and probed for the endogenous partner
T4 sequence: T1 sequence

[4] = molecular target: T5, TKT (overexpressed in HEK293T) (human) (UniProt P29401); assay: co-IP; full and truncated TKTL1 and TKT co-expressed in HEK293T cells; Flag beads; western blot
T5 sequence: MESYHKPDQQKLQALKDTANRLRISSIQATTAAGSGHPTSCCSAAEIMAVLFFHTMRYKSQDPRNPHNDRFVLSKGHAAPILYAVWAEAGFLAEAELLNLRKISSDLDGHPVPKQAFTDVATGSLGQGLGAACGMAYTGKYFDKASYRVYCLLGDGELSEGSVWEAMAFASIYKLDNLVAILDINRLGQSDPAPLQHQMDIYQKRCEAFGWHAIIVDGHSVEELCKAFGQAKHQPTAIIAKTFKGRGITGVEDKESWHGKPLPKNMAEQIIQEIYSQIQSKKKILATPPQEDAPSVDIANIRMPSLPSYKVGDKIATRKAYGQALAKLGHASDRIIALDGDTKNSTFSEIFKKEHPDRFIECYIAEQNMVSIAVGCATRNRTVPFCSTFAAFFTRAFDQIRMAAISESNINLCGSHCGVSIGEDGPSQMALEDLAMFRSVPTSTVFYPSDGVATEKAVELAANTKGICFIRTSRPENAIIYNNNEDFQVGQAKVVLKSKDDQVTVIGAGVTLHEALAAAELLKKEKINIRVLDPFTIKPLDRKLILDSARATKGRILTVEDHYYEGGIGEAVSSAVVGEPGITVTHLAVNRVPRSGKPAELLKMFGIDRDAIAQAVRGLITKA

[5] = molecular target: T6, TKT of the recombinant TKTL1-TKT heterodimer (human) (UniProt P29401); assay: native gel or EMSA; native gel electrophoresis of TKT, TKTL1-TKT and TKTL1; both purified
T6 sequence: T5 sequence

[6] = molecular target: T6, TKT of the recombinant TKTL1-TKT heterodimer (human); assay: SEC; Superdex 200 in cold PBS (4 °C), 0.4 mL/min; fractions analysed by western blot; markers MSH6 (152 kDa) and BSA (66 kDa); heterodimer purified beforehand by nickel resin then FLAG beads; both purified
[7] = molecular target: T7, TKTL1 (overexpressed in HEK293T) (human) (UniProt P51854); assay: co-IP; full and truncated TKTL1 and TKT co-expressed in HEK293T cells; Flag beads; western blot
T7 sequence: T1 sequence

[8] = molecular target: T8, ectopically expressed TKTL1 (progressive overexpression, Fig. 5a) (human) (UniProt P51854); assay: immunodepletion; TKTL1 progressively overexpressed; ectopic TKTL1 removed from the cell lysate by affinity purification; TKT left in the cleared lysate blotted
T8 sequence: T1 sequence

[9] = molecular target: T4, endogenous TKTL1 (ccRCC tissue) (human (endogenous in ccRCC tissue)); assay: co-IP; endogenous TKTL1 affinity purified from ccRCC tissue lysate and probed for the endogenous partner; remark: listed apart in the source
[10] = molecular target: T4, endogenous TKTL1 (ccRCC tissue) (human (endogenous in ccRCC tissue)); assay: immunodepletion; TKTL1 removed from ccRCC tissue lysate by an anti-TKTL1 antibody; TKT left in the cleared lysate blotted

binding [1]: no binding
Molecule: CDC20 (from UniProt Q12834 1-499)

binding [2]: binds
binding (TKTL1^ΔD-box (human)): binds
Molecule: CDH1-Myc (APC/C adaptor CDH1) (from UniProt Q9UM11 1-496)

binding [3]: binds
Molecule: endogenous CDH1 (ccRCC tissue) (from UniProt Q9UM11 1-496)

binding [4]: no binding
B1: TKTL1^118–448 (domain or fragment, UniProt P51854 118-448)
chain: YRVFCLMSDGESSEGSVWEAMAFASYYSLDNLVAIFDVNRLGHSGALPAEHCINIYQRRCEAFGWNTYVVDGRDVEALCQVFWQASQVKHKPTAVVAKTFKGRGTPSIEDAESWHAKPMPRERADAIIKLIESQIQTSRNLDPQPPIEDSPEVNITDVRMTSPPDYRVGDKIATRKACGLALAKLGYANNRVVVLDGDTRYSTFSEIFNKEYPERFIECFMAEQNMVSVALGCASRGRTIAFASTFAAFLTRAFDHIRIGGLAESNINIIGSHCGVSVGDDGASQMALEDIAMFRTIPKCTIFYPTDAVSTEHAVALAANAKGMCFIRTTR

binding [5]: binds
binding [6]: binds
B2: TKTL1 of the recombinant TKTL1-TKT heterodimer (protein, UniProt P51854 1-596)
chain: T1 sequence

binding [7]: no binding
B3: TKT with N-terminus (a.a. 1–147) and C-terminus (a.a. 474–623) removed (domain or fragment, UniProt P29401 148-473)
chain: RVYCLLGDGELSEGSVWEAMAFASIYKLDNLVAILDINRLGQSDPAPLQHQMDIYQKRCEAFGWHAIIVDGHSVEELCKAFGQAKHQPTAIIAKTFKGRGITGVEDKESWHGKPLPKNMAEQIIQEIYSQIQSKKKILATPPQEDAPSVDIANIRMPSLPSYKVGDKIATRKAYGQALAKLGHASDRIIALDGDTKNSTFSEIFKKEHPDRFIECYIAEQNMVSIAVGCATRNRTVPFCSTFAAFFTRAFDQIRMAAISESNINLCGSHCGVSIGEDGPSQMALEDLAMFRSVPTSTVFYPSDGVATEKAVELAANTKGICFIRTS

binding [8]: binds
B4: endogenous TKT (cells of Fig. 5a) (protein, UniProt P29401 1-623)
chain: T5 sequence

binding [9]: binds
binding [10]: binds
B5: endogenous TKT (ccRCC tissue) (protein, UniProt P29401 1-623)
chain: T5 sequence
